# Data reported in PubChem BioAssay (NCI).
#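 48-hour exposure; five concentrations; linearly interpolated endpoints. The concentration for 50% growth inhibition is given as GI50.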 Certain results were filed several times, with different values. They are shown here; other results are not. An entry can have further records. For some of these results: Records of one sample usually come from different ranges of test concentrations, not given here; some values may only mark the edge of a range.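 TGI: total growth inhibition.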 For some of these results: The values listed for one entry are repeats across runs, samples, wells, individuals or studies. Records carry a tag for their origin. A, B and so on number the origins entry by entry.
# Tests used:
# Test in all cases: NCI tumour cell line growth inhibition, 48 h
# [1] = test system: HOP-62 NSCLC
# [2] = test system: NCI/ADR-RES ovarian
# [3] = test system: HS 578T breast
# [4] = test system: HL-60(TB) leukemia
# [5] = test system: RPMI-8226 leukemia
# [6] = test system: NCI-H23 lung
# [7] = test system: P388/ADR leukemia
# [8] = test system: KM20L2 colon
# [9] = test system: DMS 273 small cell lung
Compound,TGI [1],TGI [2],TGI [3],TGI [4],TGI [5],TGI [6],GI50 [7],GI50 [8],TGI [8],TGI [9]
O=C(Nc1cccc(Cl)c1)c1cc2ccccc2cc1O,"9.3 µM [sample A, 1 test] and > 100 µM [sample B, 1 test]","7.45 µM [sample A, 1 test] and > 100 µM [sample B, 1 test]","> 100 µM [sample A, 1 test] and 9.05 µM [sample B, 1 test]","7.11 µM [sample A, 1 test] and > 100 µM [sample B, 1 test]","6.04 µM [sample A, 1 test] and > 100 µM [sample B, 1 test]","7.38 µM [sample A, 1 test] and > 100 µM [sample B, 1 test]",–,–,–,–
C=C1C(=O)O[C@H]2[C@H]1[C@@H](OC(=O)C=C(C)C)CC1=C[C@@H](C[C@@]3(C)O[C@@H]23)OC1=O,–,–,–,–,–,–,192 nM and 2.38 µM,139 nM and 6.16 µM,949 nM and 22.1 µM,3.08 µM and 47.7 µM
